The whole screen tested about 350,000 compounds, of which about 31,000 (8.9%) were called active. The shares of active, inactive and inconclusive entries below differ from those in the screen. The call rests on the fitted dose curve; in most records, active means well fitted inhibition curve with a large enough effect; inconclusive means small, poorly fitted or top-dose-only effect; inactive means no such curve, though single readings can be large or run the other way. Potencies of inconclusive entries are doubtful fits and often do not repeat. Where a structure was tested more than once in an assay, its records may differ in their call.
These compounds were tested against Histone-lysine N-methyltransferase EHMT2 (Homo sapiens) (UniProt Q96KQ7) (assay: qHTS Assay for Inhibitors of Histone Lysine Methyltransferase G9a). Settings: G9a H3K9 monomethylation, AlphaScreen, 2 h; activity, negative = inhibition: at 59 µM (top of the series) unless noted.
Sequence of UniProt Q96KQ7 (Q96KQ7 whole entry, looked up): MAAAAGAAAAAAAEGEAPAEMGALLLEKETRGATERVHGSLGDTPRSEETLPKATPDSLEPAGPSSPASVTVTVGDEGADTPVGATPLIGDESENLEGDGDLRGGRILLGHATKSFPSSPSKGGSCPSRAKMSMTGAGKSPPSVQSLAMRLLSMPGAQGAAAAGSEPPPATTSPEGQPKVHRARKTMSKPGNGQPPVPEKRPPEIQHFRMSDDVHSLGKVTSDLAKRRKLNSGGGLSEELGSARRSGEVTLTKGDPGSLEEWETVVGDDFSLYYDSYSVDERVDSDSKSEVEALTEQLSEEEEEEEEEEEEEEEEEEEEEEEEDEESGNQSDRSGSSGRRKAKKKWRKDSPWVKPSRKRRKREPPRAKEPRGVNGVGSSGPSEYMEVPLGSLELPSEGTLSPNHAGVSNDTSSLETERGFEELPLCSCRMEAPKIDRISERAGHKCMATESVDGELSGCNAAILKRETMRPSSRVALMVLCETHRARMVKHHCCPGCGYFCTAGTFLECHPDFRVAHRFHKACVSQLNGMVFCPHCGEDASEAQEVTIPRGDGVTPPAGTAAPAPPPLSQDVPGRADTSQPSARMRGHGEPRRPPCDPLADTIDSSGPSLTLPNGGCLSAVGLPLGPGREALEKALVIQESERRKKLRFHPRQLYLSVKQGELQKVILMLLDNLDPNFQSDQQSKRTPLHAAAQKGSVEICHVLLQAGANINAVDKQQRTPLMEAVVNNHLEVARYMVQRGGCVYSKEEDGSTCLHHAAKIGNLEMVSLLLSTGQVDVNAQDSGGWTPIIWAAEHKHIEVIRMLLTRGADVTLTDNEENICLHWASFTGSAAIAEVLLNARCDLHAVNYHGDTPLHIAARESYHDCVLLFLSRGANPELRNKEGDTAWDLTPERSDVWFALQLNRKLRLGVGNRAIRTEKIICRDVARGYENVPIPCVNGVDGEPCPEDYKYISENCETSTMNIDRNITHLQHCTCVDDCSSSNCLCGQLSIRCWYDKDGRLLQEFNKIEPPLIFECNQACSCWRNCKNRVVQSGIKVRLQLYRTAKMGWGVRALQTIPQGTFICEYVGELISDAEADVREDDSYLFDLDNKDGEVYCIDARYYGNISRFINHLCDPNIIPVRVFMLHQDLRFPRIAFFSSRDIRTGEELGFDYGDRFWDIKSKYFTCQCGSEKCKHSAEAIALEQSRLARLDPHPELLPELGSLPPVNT
Method in brief: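 Readings reflect AlphaScreen signal from monomethyl-H3K9 antibody detection. HMT at 20 nM; substrate b-H3K9 500 nM; cofactor SAM 20 uM; 2 h RT reaction; compounds tested as titrations in qHTS with 15 min preincubation.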
Further: nearly all actives have a fitted effect of over 75% in size.
On the % scale 0 is the no-effect control and ±100 the full control effect; potency means the concentration at half of the fitted maximal effect; tags describe the fitted curve by direction and shape.

**Q.** For `CCOC(=O)CSc1nnc(Cc2cc(=O)[nH]c(=O)[nH]2)n1-c1ccc(Cl)cc1`, which Potency is on record?
**A.** active: 50.1 µM

**Q.** Which Potency does the source give for `CCN1CCSc2ccc(C(=O)NCc3ccc(OC(C)C)cc3)cc21` here?
**A.** active: 44.7 µM

**Q.** Which Potency does the source give for `CCc1nn(C)c(N)c1C` here?
**A.** inactive

**Q.** How did the activity, negative = inhibition turn out when `Fc1ccccc1-c1nnc2ccc3ccccc3n12` was run?
**A.** inactive: -8.93% [at 0.501 µM]

**Q.** With `COc1ccc(C2/C=C\[C@H](O[Si](C)(C)C(C)(C)C)[C@H](C(C)C)CC(=O)N2Cc2ccccc2)cc1` (stereo partly specified) as the compound, how does the Potency read?
**A.** inactive

**Q.** With `COc1cc(C(=O)NCC(c2ccc3c(c2)OCO3)N2CCOCC2)cc(OC)c1OC` (stereo unspecified) as the compound, how does the Potency read?
**A.** inactive

**Q.** Which Potency does the source give for `COc1ccc(NC(=O)CCNS(=O)(=O)c2ccc3c(c2)c(=O)n(C)c(=O)n3C)cc1OC` here?
**A.** inactive

**Q.** With `COc1ccc(-c2nnc(SCC(=O)c3ccco3)n2-c2ccccc2)cc1` as the compound, how does the Potency read?
**A.** inconclusive: 89.1 µM [inhibitor, single point]

**Q.** With `COCCn1c(C)cc(C(=O)CSc2nc3ccccc3c(=O)n2C(C)COC)c1C` (stereo unspecified) as the compound, how does the Potency read?
**A.** inconclusive: 89.1 µM [inhibitor, partial curve, poor fit]

**Q.** With `Cc1ccc(NC(=O)CCNC(=O)c2ccccc2Cl)cc1S(=O)(=O)N1CCCCCC1` as the compound, how does the activity, negative = inhibition read?
**A.** inactive: 14% [at 12.7 µM]

**Q.** Which Potency does the source give for `CS(=O)(=O)c1ccc2nc(N)sc2c1` here?
**A.** inconclusive: 70.8 µM [inhibitor, single point]

**Q.** How did the activity, negative = inhibition turn out when `C#CCOCCOCCOCCNc1nc(N2CCN(C(=O)CCCCCCCCCCNC(=O)[C@H](CCCCN)n3cc(C)nn3)CC2)nc(N2CCN(C(=O)CCCCCCCCCCNC(=O)[C@@H]([C@H](C)CC)n3cc(CCCCCN)nn3)CC2)n1` was run?
**A.** inactive: 6.72% [at 2.33 µM]

**Q.** How did the Potency turn out when `CCOC(=O)c1cnc(-n2cc(C)cn2)nc1Nc1ccccc1OC` was run?
**A.** inconclusive: 11.2 µM [inhibitor, single point]

**Q.** `CC(=O)N1c2ccccc2CC1C(=O)N1CCN(c2ccccc2)CC1` (stereo unspecified) was tested. Which Potency did it give?
**A.** inactive

**Q.** `CN(c1ccc(-c2csc(NC(=O)C3CC(=O)N(Cc4ccco4)C3)n2)cc1)S(C)(=O)=O` (stereo unspecified) was tested. Which Potency did it give?
**A.** inconclusive: 39.8 µM [inhibitor, single point]

**Q.** `O=C(CCc1nc(-c2cccs2)no1)Nc1cnc2ccccc2c1` was tested. Which Potency did it give?
**A.** inconclusive: 89.1 µM [inhibitor, single point]

**Q.** How did the Potency turn out when `N=C(N)SCCc1cccc(CCSC(=N)N)c1` was run?
**A.** active: 3.55 µM

**Q.** Which Potency does the source give for `CCOC(=O)Cc1ccc(NC(=O)NCc2c(-n3cccc3)sc3c2CCCC3)cc1` here?
**A.** inactive

**Q.** For `CC1=C(C(=O)Nc2ccc(Br)cc2)C(c2ccco2)NC(=O)N1` (stereo unspecified), which Potency is on record?
**A.** inconclusive: 100 µM [inhibitor, single point]

**Q.** `COc1ccc(N(Cc2cc3ccccc3[nH]c2=O)C(=O)c2cccc(Cl)c2)cc1` was tested. Which Potency did it give?
**A.** inconclusive: 22.4 µM [inhibitor, partial curve, poor fit]

**Q.** Which activity, negative = inhibition does the source give for `O=C(NCC(=O)N1CCCCCCC1)c1ccccc1Cl` here?
**A.** inactive: 8.52% [at 12.7 µM]

**Q.** How did the Potency turn out when `Cc1[nH]n(S(=O)(=O)Cc2ccccc2)c(=O)c1N=Nc1ccccc1Cl` was run?
**A.** active: 50.1 µM

**Q.** With `S=C1NC(C23CC4CC(CC(C4)C2)C3)=CC(c2ccc3c(c2)OCO3)N1` (stereo unspecified) as the compound, how does the Potency read?
**A.** inconclusive: 1.78 µM [inhibitor, full curve, poor fit]

**Q.** Which Potency does the source give for `Cc1ccc(S(=O)(=O)N2CCCCC2)cc1NC(=O)Cc1c[nH]c2ccccc12` here?
**A.** inactive

**Q.** With `CC(C)(C)Cc1nnc(NC(=O)CSc2ccccc2)s1` as the compound, how does the Potency read?
**A.** active: 4.47 µM

**Q.** `Cc1ccc(NC(=O)CC2SC3=NCCCN3C2=O)c(C)c1` (stereo unspecified) was tested. Which Potency did it give?
**A.** active: 0.708 µM

**Q.** For `Nc1ccc(C23CC4CC(CC(O)(C4)C2)C3)cc1`, which Potency is on record?
**A.** inconclusive: 31.6 µM [inhibitor, single point]

**Q.** How did the Potency turn out when `COc1ccc(-n2nc(C(=O)NCC(=O)NCc3ccc(F)cc3)c3ccccc3c2=O)cc1OC` was run?
**A.** inconclusive: 79.4 µM [inhibitor, single point]

**Q.** For `Cc1cc(=O)c(C(=O)O)cn1Nc1ccc(Cl)cc1`, which Potency is on record?
**A.** inconclusive: 39.8 µM [inhibitor, single point]

**Q.** `COc1ccc(C2=Nn3c(nnc3-c3cccnc3)SC2)cc1OC` was tested. Which Potency did it give?
**A.** inconclusive: 89.1 µM [inhibitor, single point]

**Q.** For `Cn1cnc2c1c(=O)[nH]c(=O)n2Cc1ccccc1`, which Potency is on record?
**A.** inconclusive: 89.1 µM [inhibitor, single point]

**Q.** With `COc1cccc(-n2c(N)cc(=O)nc2SCC(=O)Nc2cc(C)on2)c1` as the compound, how does the Potency read?
**A.** inactive

**Q.** `CCOc1ccc(N2CC(NC(=O)c3ccco3)CC2=O)cc1` (stereo unspecified) was tested. Which Potency did it give?
**A.** inactive

**Q.** With `CCn1c(=O)cc(OCC(=O)NCc2ccc(C)o2)c2ccccc21` as the compound, how does the activity, negative = inhibition read?
**A.** inconclusive: -84.5% [inhibitor]

**Q.** Which Potency does the source give for `CCCCOc1ccc2c(c1)/C(=C(\C(Cl)=C(Cl)Cl)[N+](=O)[O-])N2` here?
**A.** active: 44.7 µM

**Q.** How did the Potency turn out when `CN(C)S(=O)(=O)c1cccc(NC(=O)COc2nc3ccccc3nc2N2CCOCC2)c1` was run?
**A.** inconclusive: 39.8 µM [inhibitor, single point]

**Q.** How did the Potency turn out when `O=C(O)c1cnc(-c2ccccc2)nc1C(F)(F)F` was run?
**A.** inconclusive: 89.1 µM [inhibitor, single point]

**Q.** Which activity, negative = inhibition does the source give for `Cc1ccccc1S(=O)(=O)Cc1ccc(C(=O)N2CCN(c3ncccn3)CC2)o1` here?
**A.** inactive: -40.1% [at 12.7 µM]

**Q.** How did the Potency turn out when `CC(C)N(C(=O)C1CC(=O)OC12CCCCC2)C(C)C` (stereo unspecified) was run?
**A.** inconclusive: 89.1 µM [inhibitor, partial curve, poor fit]

**Q.** How did the Potency turn out when `C=CCNCCOCCOc1ccc(C)cc1Br` was run?
**A.** active: 3.16 µM

**Q.** Which activity, negative = inhibition does the source give for `COCCCNC(=O)CCCC(=O)NCCCOC` here?
**A.** inconclusive: -53.4% [inhibitor] [at 12.7 µM]

**Q.** Which Potency does the source give for `CCOc1cccc2cc(C(=O)N3CCc4ccccc4C3)c(=O)oc12` here?
**A.** inconclusive: 25.1 µM [inhibitor, single point]

**Q.** How did the Potency turn out when `Cc1cccc(OCC(=O)Nc2cccc(OCc3cc(=O)n4cccc(C)c4n3)c2)c1` was run?
**A.** inactive

**Q.** Which Potency does the source give for `O=C(Nc1ccc(F)cc1)C(c1ccccc1)N1CCN(CC(=O)N2CCOCC2)CC1` (stereo unspecified) here?
**A.** active: 10 µM

**Q.** Which Potency does the source give for `COc1cccc2cc(C(C)N(CCCN3CCOCC3)C(=S)Nc3ccc(C)c(C)c3)oc12` (stereo unspecified) here?
**A.** inconclusive: 8.91 µM [inhibitor, partial curve, poor fit]

**Q.** For `O=C(NCCN1CCOCC1)c1c(O)nc2sccn2c1=O`, which Potency is on record?
**A.** inconclusive: 12.6 µM [inhibitor, partial curve, poor fit]

Reference: PubChem BioAssay AID504332 (National Center for Advancing Translational Sciences (NCATS), 2011)
